This is an account of results in ChEMBL document CHEMBL4888484, “Replenishing the malaria drug discovery pipeline: Screening and hit evaluation of the MMV Hit Generation Library 1 (HGL1) against asexual blood stage Plasmodium falciparum ,using a nano luciferase reporter read-out” (2022).

The whole screen tested about 150,000 compounds, of which about 540 (0.36%) showed an effect of 50% or more. Some of the results follow.

For this assay, the system named is Plasmodium falciparum. The assay is described as follows: Primary screen in NF54 nanoGlo assay, in single point, at 2uM, 72h; a lower Z score goes with more inhibition. Format: functional, Erythrocyte. The conditions noted are these: timepoint 72 hour.
Consider `COc1ccc(CCNc2ccc(NC(=O)CCCNC(=O)OC(C)(C)C)cn2)cc1`, for which the “% Inhibition” value is recorded as -2% and the Z score was determined as 0.31.
As to `COc1cc2c(cc1CN1C[C@H](O)[C@@H](F)C1)OCO2`, the “% Inhibition” value is reported as -10% and the Z score was determined as 1.29.
For `Cc1ccc(S(=O)(=O)NC(=O)C2CCC3CC3C2)s1` (stereo not drawn), in that order: 1% and -0.06.
For `CCN(CC)CCOc1cc(C)cc(C)c1`, in that order: -4% and 0.67.
For `CCOc1cc(C(=O)N[C@H]2CCc3c(nc(C)n3CCO)C2)n[nH]1`, in that order: -6% and 1.17.
In the case of `c1ccc2c(Oc3ccc(CN4CCOCC4)c4cccnc34)nccc2c1`, the “% Inhibition” value is -9% and the Z score came out at 1.73.
`CCn1cc(S(=O)(=O)N2CCC[C@H]2c2nncn2Cc2ccncc2)cn1`: the “% Inhibition” value came to 0% and the Z score is -0.02.
For `CC(=O)N1CCc2cc(S(=O)(=O)N3CCC(CC(=O)NC4CCCCC4)CC3)ccc21`, the “% Inhibition” value was -10% and the Z score is reported as 0.95.
As for `CN(C)Cc1ccnc(NC(=O)N2C[C@@H]3CCC[C@]3(C(N)=O)C2)c1`, the “% Inhibition” value is given as -6% and the Z score is on record as 0.92.
With `Cc1cc(S(=O)(=O)NC[C@H]2CCCO2)ccc1N1CCCC1=O`, the “% Inhibition” value is recorded as -25% and the Z score came out at 2.32.
On to `CN(CCc1nccc(O)n1)S(=O)(=O)Cc1ccccc1`, for which the “% Inhibition” value is given as -7% and the Z score worked out at 0.9.
Regarding `Cn1nccc1C1(O)CN(S(=O)(=O)C2Cc3ccccc3C2)C1`, the “% Inhibition” value is listed as -11% and the Z score came to 1.76.
Turning to `Cc1cc(CN(C)C(=O)c2ccc(NC(=O)c3ccoc3C)cc2)n[nH]1`, the “% Inhibition” value is -2% and the Z score turned out to be 0.38.
For the compound `COc1c(Br)cc(Br)cc1CNCCNC(=O)C(C)C`, the “% Inhibition” value was 0% and the Z score is -0.04.
For `CN1Cc2ccc(CN(C)C(=O)CCc3c[nH]c4ccccc34)cc2C1`, the “% Inhibition” value is listed as -10% and the Z score was determined as 0.87.
For `O=C(O)c1ccc2nc(-c3cccn3-c3ncccn3)[nH]c2c1`, the “% Inhibition” value is recorded as -16% and the Z score was found to be 2.33.
Turning to `Clc1ccc(C[n+]2ccc(-c3nc4ccccc4o3)cc2)c(Cl)c1`, the “% Inhibition” value stood at 79% and the Z score was -11.4.
For `CN(C)CCn1ccc(NC(=O)N2CCC[C@H](c3ccn(C)n3)C2)n1`, in that order: 11% and -1.25.
`O=C(c1ccc(F)c(F)c1F)N1CCC(n2ccnn2)CC1`: the “% Inhibition” value is listed as 34% and the Z score is -3.84.
Take `Cn1cc(NC(=O)C2(O)CCCC2)nn1`: the “% Inhibition” value is given as -2% and the Z score was 0.35.
Regarding `CCCCCS(=O)(=O)N(C)C1CCC1`, the “% Inhibition” value amounted to 13% and the Z score is reported as -1.45.
`CC(C)Cn1cccc(C(=O)Nc2cn(C)nc2-c2ccco2)c1=O`: the “% Inhibition” value was -9% and the Z score came to 1.12.
On to `O=C(c1ccc(F)cc1)N1CCC2(CC1)C[C@@H](N1CCOCC1)CCO2`, for which the “% Inhibition” value is listed as -3% and the Z score is reported as 0.57.
For the compound `O=C(O)[C@@]12CN(Cc3cccc(F)c3)C[C@@H]1CN(Cc1cccs1)C2`, the “% Inhibition” value is given as -17% and the Z score was determined as 2.25.
As for `COCc1ccc(NC(=O)N2Cc3cccc(OC)c3C2)cc1C(F)(F)F`, the “% Inhibition” value is on record as -8% and the Z score is given as 0.83.
As for `COCCn1cncc1CNC(=O)N(C)[C@@H](C)c1nc(C)sc1C`, the “% Inhibition” value is reported as -1% and the Z score stood at 0.18.
For the compound `Cc1cc(C)cc(N(Cc2cc(C)no2)Cc2cc(C)no2)c1`, the “% Inhibition” value is reported as -11% and the Z score amounted to 1.49.
In the case of `NCc1ccc(C(=O)N(Cc2ccccc2)C2CCCCC2)o1`, the “% Inhibition” value is -13% and the Z score stood at 1.69.
For `CN(CC(O)c1cccnc1)C(=O)[C@@H]1C[C@]1(C)c1ccccc1` (stereo partly drawn), in that order: -6% and 1.21.
As for `CC1(O)CC(C(=O)NCC[C@H]2CCCCO2)C1` (stereo partly drawn), the “% Inhibition” value is -2% and the Z score was 0.29.
As to `CCc1ccc(-c2cc3n(n2)C[C@@](C)(C(=O)NC2CCCCCC2)N(c2ccc(F)cc2)C3=O)cc1`, the “% Inhibition” value is listed as 0% and the Z score is 0.02.
For `N#Cc1nc(C2CC2)oc1N1CCN(C(=O)c2ccc(O)nc2)CC1`, in that order: -2% and 0.35.
As to `CNC(=O)c1cc(N2CCN(c3ncc(C(F)(F)F)cc3Cl)CC2)ccc1NC(=O)c1ccccc1Cl`, the “% Inhibition” value is 35% and the Z score is -1.22.
As to `Cc1ccc(C(=O)N/C(=N/c2ccc3c(c2)OCCO3)NCc2c(C)nn(C)c2C)cc1C`, the “% Inhibition” value is given as -4% and the Z score is listed as 0.72.
In the case of `O=C1NCCC[C@@H]1NC(=O)[C@H]1CN(C(=O)c2cncnc2)CCN1C(=O)C1CCCCC1`, the “% Inhibition” value is -1% and the Z score amounted to 0.08.
With `CCCNC(=O)N(Cc1cc(-c2ccccc2OC)on1)C(C)C`, the “% Inhibition” value is reported as -4% and the Z score worked out at 0.74.
For `CC(C)c1csc(CNC(=O)c2cnc3cn[nH]c3c2)n1`, in that order: -16% and 2.59.
For the compound `CCS(=O)(=O)N1CCC(c2cc(-c3ccc(F)cc3)n[nH]2)CC1`, the “% Inhibition” value is on record as -10% and the Z score is reported as 1.23.
For `O=C(Cn1cc2c(n1)CCOC2)NCc1ccccc1F`, in that order: -5% and 0.67.
For the compound `Cc1cc2c(N[C@H]3C[C@@](C)(O)C3)nccn2n1`, the “% Inhibition” value is recorded as -3% and the Z score came out at 0.54.
With `CN(C)CCCC(C)(C)NC(=O)CC=CCc1ccccc1`, the “% Inhibition” value is -17% and the Z score stood at 1.97.
On to `COCC(=O)N(CC(=O)N(Cc1ccccc1)Cc1ccc(C)o1)C(C)C`, for which the “% Inhibition” value was -14% and the Z score stood at 1.57.
`CNC(=O)c1cc(O[C@H]2CCCN(C(=O)C3CC(=O)C3)C2)ccn1`: the “% Inhibition” value is on record as -1% and the Z score is listed as 0.16.
Consider `CC(NC(=O)C1(O)CCCC1)C1CCN(Cc2ccccc2)C1` (stereo not drawn), for which the “% Inhibition” value is -10% and the Z score was determined as 2.
Take `Cn1nccc1C[C@@H]1CCCN1C(=O)NCC(C)(C)c1cccnc1`: the “% Inhibition” value is reported as 0% and the Z score was 0.04.
With `Nc1cncc(-c2ccc(F)c3cccnc23)c1`, the “% Inhibition” value came to 9% and the Z score was -1.61.
In the case of `CC[C@@](NC(=O)c1cscc1C)(C(N)=O)C(C)C`, the “% Inhibition” value was -1% and the Z score stood at 0.17.
With `Cn1cc(S(=O)(=O)N2CCCCCC2)cc1C(=O)NC1CCCCC1`, the “% Inhibition” value turned out to be 4% and the Z score is listed as -0.59.
In the case of `CN1CCN(CC[C@H]2CCCCN2C(=O)Nc2ccc3[nH]ccc3c2)CC1`, the “% Inhibition” value is listed as -5% and the Z score is reported as 0.7.
On to `CC(C)[C@H]1C(=O)NCCN1c1ncc(Br)cn1`, for which the “% Inhibition” value is on record as -7% and the Z score came to 0.77.
Consider `O=C1NC[C@H]2O[C@H](CCOc3cc(-c4ccccc4)ccc3C(=O)N3CCN(C4CCCCC4)C[C@@H]13)CC[C@@H]2O`, for which the “% Inhibition” value worked out at 3% and the Z score is -0.37.
As for `CCC(OC1CCCC(C)C1)C(=O)N(C)Cc1cnccn1` (stereo not drawn), the “% Inhibition” value is -6% and the Z score turned out to be 0.79.
With `Cc1cc(N[C@H](c2nc(-c3nnc[nH]3)no2)C(C)(C)C)n2nc(C(F)(F)F)nc2n1`, the “% Inhibition” value is -7% and the Z score was found to be 0.71.
For `Cn1ccnc1COC(=O)c1cscn1`, in that order: -1% and 0.12.
For `COc1ccc(-c2nc(C(=O)N3c4ccccc4C[C@H]3C(N)=O)cs2)cc1`, in that order: -4% and 0.47.
As to `Cc1cnccc1CCNCc1ccccc1OCCCCO`, the “% Inhibition” value is -1% and the Z score was 0.11.
For `CCC(C)NS(=O)(=O)c1cccc(N2C(=O)NC3(CCOC3)C2=O)c1` (stereo not drawn), the “% Inhibition” value is -3% and the Z score is reported as 0.34.
For `COCCCCn1ccnc1-c1ccncc1`, in that order: -3% and 0.49.
As to `CCn1c(=O)c(CCC(=O)NCCN2CCCCC2)nc2c(C)nn(-c3ccccc3)c21`, the “% Inhibition” value was -14% and the Z score came to 2.1.
Regarding `CN1CCC2(CC1)CN(C(=O)c1cc(-c3ccccc3)on1)CCCN2C`, the “% Inhibition” value was -1% and the Z score was determined as 0.16.
For the compound `O=S1(=O)[C@H](c2ccccc2)CCN1Cc1cc(F)ccc1OC(F)F`, the “% Inhibition” value was -13% and the Z score is 1.5.
For `CCNc1ccc(Cl)cc1C(=O)Oc1ccc(NS(C)(=O)=O)cc1`, the “% Inhibition” value was -9% and the Z score was found to be 1.22.
As for `COc1ccc(-c2ccc(=O)n(CCNS(=O)(=O)c3ccc(Oc4ccccc4)cc3)n2)cc1`, the “% Inhibition” value was -5% and the Z score is 0.94.
With `COc1cc(C(=O)O)cc(OC)c1-c1ccc([C@H](C)N2CCCC2)cc1`, the “% Inhibition” value is recorded as -8% and the Z score is listed as 1.56.
`COC[C@@H]1CN(c2ncccn2)C[C@H]1C(=O)Nc1ccc(OC)nc1`: the “% Inhibition” value is listed as -11% and the Z score turned out to be 1.62.
With `CC(C)N(c1snnc1N)C(C)C`, the “% Inhibition” value is -41% and the Z score amounted to 4.86.
Take `O=C(c1cnn(C2CC2)c1)N1CC[C@H](c2cccnc2)C1`: the “% Inhibition” value was -3% and the Z score was 0.59.
In the case of `CC(C)c1nc(C2CCN(C(=O)c3nc4n(n3)CCCN4)CC2)no1`, the “% Inhibition” value was -9% and the Z score is 1.29.
As for `Nc1nnc(-c2cc(-c3ccc4c(c3)OCO4)on2)o1`, the “% Inhibition” value was -10% and the Z score was determined as 1.43.
Take `CC(C)N(C)C(=O)[C@H](C)Nc1cnn(CC(F)F)c1`: the “% Inhibition” value is recorded as -5% and the Z score worked out at 0.57.
`CCc1cccc2c(CCNC(=O)CCNC(=O)C3CCC3)c[nH]c12`: the “% Inhibition” value is given as -5% and the Z score is listed as 0.71.
As to `COc1ccc(N2CCN(C(=O)CC[C@@H](C)[C@H]3CC[C@H]4[C@@H]5[C@H](O)C[C@@H]6C[C@H](O)CC[C@]6(C)[C@H]5C[C@H](O)[C@]34C)CC2)cc1`, the “% Inhibition” value is listed as -12% and the Z score stood at 1.52.
For `O=C(Nc1cccc(-c2csc(Nc3ccccc3Cl)n2)c1)C1CCOCC1`, in that order: -1% and 0.18.
For `O=C(NCCO)C(=O)Nc1ccc(Br)cc1`, in that order: -11% and 1.37.
Take `C[C@]1(C(=O)NCC2(N3CCOCC3)CCCCC2)CC1(Cl)Cl`: the “% Inhibition” value is on record as 1% and the Z score is -0.11.
In the case of `FC(F)(F)c1ccc(C[C@H]2CCNC2)cc1`, the “% Inhibition” value is -2% and the Z score amounted to 0.36.
As to `C[C@@H](CO)N1CCN(c2cc(NCC3CC3)ncn2)CC1`, the “% Inhibition” value is recorded as -8% and the Z score is 1.36.
For `CC(C)(C)OC(=O)N1C[C@H]2CCN(C(=O)CC#N)CC[C@H]2C1`, in that order: -12% and 1.32.
For the compound `O=C(COC(=O)COc1ccccc1)NCCc1ccccc1`, the “% Inhibition” value is -2% and the Z score is given as 0.18.
`COc1ccccc1C(=O)N1CCCN(c2nc(Cc3ccccc3)nc3c2cnn3-c2ccccc2)CC1`: the “% Inhibition” value is reported as 8% and the Z score is reported as -1.5.
As to `CC(C)n1cc(C#N)c(NC(=O)C[C@H]2CCOc3ccccc32)n1`, the “% Inhibition” value is recorded as -9% and the Z score came out at 1.36.
For `Cc1nc(C(F)(F)F)ncc1CN1CCC2(CC1)CNC(=O)O2`, the “% Inhibition” value is 0% and the Z score is -0.02.
`Cc1nc(-c2nc(N(C)C)no2)c(C)s1`: the “% Inhibition” value was -1% and the Z score was 0.17.
Turning to `CC[C@H](OC1CCCC1)C(=O)NCC1(O)CCCCC1`, the “% Inhibition” value was -9% and the Z score is 1.84.
